Measurements published in PMC5836133.
The other results are listed elsewhere or left out. At the low end of the ranking the order means little.

system: T1, GST-NbGlk1(82-244); test: protein-binding microarray; conditions: NbGlk1 is a Golden2-like transcription factor of Nicotiana benthamiana; high values mean tight binding; most listed sequences are background and not binding sites; double strand, one strand shown;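 further: rank-based score ranging −0.5 to +0.5 with E above 0.45 taken as significant binding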
T1 sequence: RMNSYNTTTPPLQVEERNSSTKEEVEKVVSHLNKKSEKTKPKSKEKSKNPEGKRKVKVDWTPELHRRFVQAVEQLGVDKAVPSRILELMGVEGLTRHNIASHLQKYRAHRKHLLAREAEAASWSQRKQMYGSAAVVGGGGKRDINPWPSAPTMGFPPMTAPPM

Sequence	binding signal
ACAACCGG	-0.108 E-score
CAAATACG	0.225 E-score
AAGCTCGC	-0.256 E-score
ACCCTTTA	-0.0786 E-score
ACCTGGGG	-0.319 E-score
AAGGTGTC	-0.135 E-score
AATAGGGG	-0.0509 E-score
ATCCGCTC	0.271 E-score
ATGATGGG	-0.0669 E-score
AGAACAGC	-0.15 E-score
ATGACCAG	-0.132 E-score
ATAGGCTC	-0.0441 E-score
AACCTCAA	-0.0373 E-score
ACCGGACA	-0.113 E-score
ACAGAGTC	-0.255 E-score
AACCCCTA	-0.159 E-score
ATTTCATG	0.332 E-score
ACAGGGCC	-0.275 E-score
AAGATGAA	-0.0306 E-score
AGAGAGAG	-0.152 E-score
AGACACAC	-0.0982 E-score
AGTGGCAC	-0.268 E-score
ACAACCAG	-0.0806 E-score
ATGCAAGG	0.013 E-score
AATTTTAA	0.174 E-score

Sequence	binding signal
ACGTACAC	-0.0052 E-score
CAAGTGGG	-0.177 E-score
ACCCGGTC	-0.273 E-score
ATGCCCAC	-0.00205 E-score
ACTGGATA	0.289 E-score
AGAACATA	0.0683 E-score
ACTCGATC	0.00759 E-score
AACCAAAT	0.193 E-score
AACCGAGG	-0.219 E-score
CACGTAGG	-0.12 E-score
ATCGCAAT	0.397 E-score
AATGTAGA	0.12 E-score
AGCACAGA	-0.102 E-score
CAAGGAGG	-0.257 E-score
ATAGCTAT	-0.0546 E-score
ACCGCCCT	-0.149 E-score
AGCCTGAT	-0.06 E-score
AACGGTGT	-0.0446 E-score
ATGCCAGC	-0.0804 E-score
CAGCGCTC	-0.068 E-score
ACTATATG	-0.114 E-score
ATTACTCC	0.154 E-score
AGTGGGAC	-0.126 E-score
CAATTATC	0.161 E-score
AAGTTAAA	0.132 E-score

Sequence	binding signal
CACTAGAC	-0.0522 E-score
ACCAAAGT	-0.109 E-score
ACCATATG	-0.0119 E-score
ATACATAA	0.124 E-score
AACTTGAA	0.155 E-score
ACATTGGA	0.0946 E-score
ACTTTTGG	-0.204 E-score
AGCCTTTC	-0.156 E-score
CACCTCTC	-0.143 E-score
AAATCCGC	0.432 E-score
ACTGTGTG	0.00957 E-score
CAAGAACC	-0.19 E-score
AGTACCTA	-0.107 E-score
ACAAGGTG	-0.177 E-score
CAAGATGC	-0.175 E-score
AAGACACT	-0.22 E-score
AAGTGTGC	-0.148 E-score
ACTGCTGA	-0.0346 E-score
ATTCCAAT	0.166 E-score
ACGAGGCC	-0.201 E-score
AGTAAAGC	-0.118 E-score
ACGCATCA	0.028 E-score
AGAAGGAG	-0.256 E-score
AAACAGAT	0.229 E-score
AAAGTGTT	0.0304 E-score

Sequence	binding signal
ACTCTCGG	-0.104 E-score
AGTGCTAG	-0.111 E-score
AAGAAGTA	0.0303 E-score
ATTGCCAC	0.0927 E-score
ATCAAGGA	0.165 E-score
CACCATTC	-0.0672 E-score
AGCGGCAA	-0.152 E-score
AGAAGCAG	-0.112 E-score
AAAAGCAG	-0.0258 E-score
ACGACACC	-0.000925 E-score
ATAGTATA	0.0818 E-score
AGTGAGCA	0.0865 E-score
AACTGCCT	-0.129 E-score
CAGCGGAG	-0.133 E-score
AGGACGTC	-0.201 E-score
AAATCTCC	0.439 E-score
CAAATCAG	0.268 E-score
AAGTGCGA	-0.0111 E-score
ATACGTTA	0.277 E-score
ATTGGAGA	0.141 E-score
ACACGAGG	-0.0474 E-score
ATCGCGGA	0.32 E-score
AACCACCG	-0.132 E-score
ACGACGTG	-0.0548 E-score
CAGATCTA	0.249 E-score

Sequence	binding signal
ACTGACAA	0.0717 E-score
CAAGATAC	0.263 E-score
AGCAGGAG	-0.272 E-score
ATCGACCG	-0.0411 E-score
ATATCCTC	0.402 E-score
ACGTGTAG	-0.0273 E-score
ACTAACCG	-0.0863 E-score
AAATCTGG	0.466 E-score
AGAACAGG	-0.149 E-score
ACTGGATC	0.107 E-score
AGTGGATA	0.257 E-score
ATCCACTA	0.247 E-score
ACGTATCA	0.163 E-score
AATTTGTA	0.228 E-score
AGTTCTCC	-0.204 E-score
ACAAATGT	-0.0114 E-score
AAATCGGC	0.302 E-score
AGCGGTAT	0.0651 E-score
ACAAAATA	0.293 E-score
ATTGAAAT	0.244 E-score
CACCACGA	-0.0136 E-score
CAATCTCC	0.349 E-score
ATTGCCAA	0.134 E-score
ATAAGCCA	-0.0929 E-score
CAGAAATA	0.175 E-score

Sequence	binding signal
AGTTACAG	-0.11 E-score
AGCCTCGA	-0.0796 E-score
AGCGTTCG	-0.106 E-score
ATTTAAGC	0.0139 E-score
CAAATCCG	0.389 E-score
ACCCTCAG	-0.15 E-score
ACAAGGAA	-0.00047 E-score
AGTTCAGA	0.0608 E-score
ACGTAGCT	-0.126 E-score
AGTGAACG	-0.0314 E-score
ACGCACGG	-0.115 E-score
AAGGGATG	-0.0767 E-score
AACATATG	-0.0893 E-score
AATCTGTA	0.414 E-score
ATATCCAG	0.395 E-score
AAGCTTTA	-0.156 E-score
ATTCTGTC	0.335 E-score
AAGGGGAT	0.203 E-score
ACTGAACC	-0.0808 E-score
CAAGTGCG	0.0152 E-score
AGAGATAT	0.391 E-score
AGGTCAGG	-0.235 E-score
CACAGTAG	-0.15 E-score
AATCGCCC	0.163 E-score
AACTGTGT	-0.12 E-score

Sequence	binding signal
AACGATCA	0.071 E-score
AGAGGGTA	-0.0038 E-score
ATCGTCAT	0.175 E-score
CACGAGGA	-0.0571 E-score
AGTAGGAA	-0.0223 E-score
AAGCTTAT	-0.043 E-score
ATTTGCGA	0.294 E-score
AAAAAGAG	-0.0797 E-score
CAAGGATA	0.229 E-score
AGAATCTA	0.48 E-score
AGGTGCAG	-0.109 E-score
CAAGCGTG	-0.257 E-score
AACTTCCA	-0.267 E-score
ATGAGTGG	-0.0823 E-score
ATCGGTGC	-0.00623 E-score
ACGCGGCG	-0.204 E-score
AGGGAGGA	-0.0992 E-score
AACAGTCT	-0.199 E-score
AAGCCACA	-0.233 E-score
AGCCGTTC	-0.0961 E-score
AGAGAGTA	-0.0337 E-score
AGCGTCGC	-0.116 E-score
